Laboratory results: PubChem BioAssay AID493208 (National Center for Advancing Translational Sciences (NCATS), 2011)
The whole screen tested about 44,000 compounds, of which about 340 (0.77%) were called active. Not shown: some 5% with an inconclusive outcome. Calls come from the whole dose curve; as a rule, active = well fitted inhibition curve with a large enough effect; inconclusive = small, poorly fitted or top-dose-only effect; inactive = flat fitted curve, though single readings scatter. The list shows a part of the results.

Test: Acumen qHTS Assay for Inhibitors of the mTORC1 Signaling Pathway in MEF (Tsc2-/-, p53-/-) Cells: Sytravon; note: nearly all actives have a fitted effect of over 50% in size;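 for activity change, negative = inhibition: plate controls were DMSO for no effect and rapamycin for full effect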
Conditions: phospho-rpS6 immunofluorescence/PI, 24 h; series mostly up to 38.3 µM; activity change, negative = inhibition: at the top concentration
Outline: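 Plate MEFs (Tsc2-/-, p53-/-, empty vector) in DMEM/10% FBS; after 24 h add compound, incubate 24 h at 37 degree Celsius; fix in PFA/TX-100, block, stain phospho-rpS6 and 10 uM PI; scan at 488 nm; report % positive cells.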
Potency is the fitted concentration of half-maximal effect.

Row | Compound | activity change, negative = inhibition | Potency
1 | COc1cccc(C2C(=O)N(C3CCCCC3)CC(=O)N2CCc2ccc(OC)c(OC)c2)c1 (stereo not drawn) | inactive: 10.5% | 
2 | CCc1ccc2c(c1)c(=O)c(S(=O)(=O)c1ccc(F)cc1)cn2CC(=O)Nc1ccccc1OC | inactive: 1.35% | 
3 | COc1ccc(-c2cc(C(=O)Oc3ccc(Br)cc3)c3ccccc3n2)cc1 | inactive: 3.88% | 
4 | Cc1ccc(NC(=O)c2oc3ccccc3c2NC(=O)C2CCCCC2)cc1 | inactive: 3.48% | 
5 | CCOC(=O)C1=C(CN(CC)Cc2ccccc2)NC(=O)NC1c1ccc(OC)cc1 (stereo not drawn) | inactive: 5.02% | 
6 | COC(=O)c1c(-c2ccc(Cl)cc2)noc1N1CCN(c2ccccc2F)CC1 | inactive: 0.755% | 
7 | CCCCNC(=O)c1ccc2c(c1)NC(=O)C(C(C)C)N2 (stereo not drawn) | inactive: -2.02% | 
8 | COc1ccc2c(c1)c1c(c(=O)n(-c3ccc(F)c(Cl)c3)c(=O)n1Cc1ccccc1F)n2C | inactive: 0.864% | 
9 | COc1ccccc1NC(=O)C(=O)c1cc(C)n(-c2cc(C)cc(C)c2)c1C | inactive: -0.856% | 
10 | N#Cc1c(-n2ncnc2-c2cccc(Cl)c2)sc2c1CCCCC2 | inactive: 11.6% | 
11 | O=C1CN(C(=O)c2cccc(Br)c2)C(c2ccccc2)c2cc(Cl)ccc2N1 (stereo not drawn) | inactive: -0.142% | 
12 | CCOc1cccc(-c2nc3ccccc3c(=O)o2)c1 | inactive: -4.6% | 
13 | COc1cccc(C(=O)Nc2nc(-c3nnn(-c4cc(C)ccc4C)c3C)ns2)c1 | inactive: 6.19% | 
14 | Cc1cc(C)c2oc(C(=O)NCCc3ccc(S(N)(=O)=O)cc3)cc(=O)c2c1 | inactive: 1.76% | 
15 | CC(C)(C)c1ccc(C(=O)NC2=NC(c3cccc(F)c3)CC(=O)N2)cc1 (stereo not drawn) | inactive: -10.3% | 
16 | O=C1CC(c2ccccc2)Cc2[nH]c(=O)c(-c3nc(-c4ccc(Cl)c(Cl)c4)cs3)cc21 (stereo not drawn) | inactive: -1.55% | 
17 | COc1ccc(Cl)cc1NC(=O)C(=O)NCc1ccc(Cl)cc1 | inactive: -0.731% | 
18 | O=C(CNS(=O)(=O)c1ccc(Br)s1)N1CCN(c2ccc(F)cc2)CC1 | inactive: -9.46% | 
19 | CCS(=O)(=O)NCCc1sc2nc(-c3ccc(OC)cc3)nn2c1C | inactive: -1.86% | 
20 | Cc1ccc(NC(=O)N2CCN(C(=O)c3nsc4ccccc34)CC2)cc1C | inactive: 8.32% | 
21 | COCCNS(=O)(=O)c1cc(-c2nn3c(C)nnc3c3ccccc23)ccc1C | inactive: -0.128% | 
22 | Cc1cccc(CCn2c(=O)c3ccccc3n(Cc3ccccc3C)c2=O)c1 | inactive: 0.398% | 
23 | Cc1ccc(C(=O)c2sc(Nc3ccc(F)cc3)c(C#N)c2N)cc1 | inactive: -6.98% | 
24 | COc1cccc(NC(=O)CN2C=NS(=O)(=O)c3ccccc32)c1 | inactive: -6.12% | 

Row | Compound | activity change, negative = inhibition | Potency
25 | CCOc1ccccc1NC(=O)N1CC(C)Oc2ccc(Cl)cc21 (stereo not drawn) | inactive: 9.32% | 
26 | CCOC(=O)c1cnc(NCc2ccc(OC)cc2OC)c2ccccc12 | inactive: -18.2% | 
27 | Cc1ccc(OC(=O)CSc2nnc(-c3ccc4c(c3)OCO4)o2)c(C)c1 | inactive: 2.02% | 
28 | COc1ccc2c(c1)c1c(c(=O)n(Cc3ccccc3)c(=O)n1CC(=O)Nc1ccccc1F)n2C | inactive: -3.49% | 
29 | Cc1cccn2c(=O)cc(COc3ccc(NC(=O)COc4ccc(F)cc4)cc3)nc12 | inactive: -2.17% | 
30 | CNC(=O)C1CCCN(c2nnc(C)c3c(C)n(-c4ccccc4)nc23)C1 (stereo not drawn) | inactive: -0.247% | 
31 | CCOCCCNC(=O)c1ccc(-c2nc(CS(=O)(=O)c3ccccc3)c(C)o2)cc1 | inactive: -5.26% | 
32 | COc1ccc(-c2nc3sc(CCNC(=O)C(C)(C)C)c(C)n3n2)cc1 | inactive: -0.396% | 
33 | O=C(O)CCc1ccc(-c2ccc(Br)cc2)n1-c1ccccc1O | inactive: 3.84% | 
34 | CCOC(=O)C1CCN(c2cc3c(cc2NC(=O)c2ccccc2Cl)n(C)c(=O)n3C)CC1 | inactive: -0.865% | 
35 | CCCCN(CC)CCNC(=O)Cn1cnc2sc(C)c(S(=O)(=O)N3CCN(c4ccccc4OC)CC3)c2c1=O | inactive: 5.19% | 
36 | CCOc1ccc2nc(N3CCCC(C(=O)NCCc4ccc(OC)cc4OC)C3)sc2c1 (stereo not drawn) | inactive: -11.1% | 
37 | CCOc1ccc(N2CC(c3nc4ccccc4n3CCOc3ccc(OC)cc3)CC2=O)cc1 (stereo not drawn) | inactive: 2.25% | 
38 | Cc1cc2nc(-c3ccc(NC(=O)c4ccc(OCC(C)C)cc4)cc3)oc2cc1C | inactive: -11.2% | 
39 | O=C(Nc1ccc(F)c(Cl)c1)c1cc(S(=O)(=O)NCc2ccc3c(c2)OCO3)ccc1F | inactive: -26.6% | 
40 | CCOc1cccc2sc(N(Cc3cccnc3)C(C)=O)nc12 | inactive: -0.645% | 
41 | CC(NC(=O)CCc1cn(Cc2ccccc2Cl)c2ccccc12)c1ccccc1 (stereo not drawn) | inactive: 0% | 
42 | O=C(NCCc1ccccc1)c1ccc(CSc2nc3cccnc3n2Cc2ccccc2)cc1 | inactive: -18.4% | 
43 | COc1ccc(/C=C/c2nc(C#N)c(N3CCC(C(N)=O)CC3)o2)cc1OC | inactive: -1.14% | 
44 | Cc1c(NC(=O)Nc2cccc(C(F)(F)F)c2)sc2nc3n(c(=O)c12)CCC(C)CC3 (stereo not drawn) | inactive: -0.948% | 
45 | Cc1ccc(-c2nc(CS(=O)(=O)CC(=O)NC(C)CCc3ccccc3)c(C)o2)cc1 (stereo not drawn) | inactive: 0.175% | 
46 | O=C(NCCO)C(=O)NCC(c1ccc2c(c1)OCO2)N1CCOCC1 (stereo not drawn) | inactive: -1.28% | 
47 | O=C(CCS(=O)(=O)c1ccccc1)N(Cc1cccnc1)c1nc2c(F)cccc2s1 |  | active: 3.69 µM
48 | COc1ccc(C(CC(=O)Nc2ccccn2)N2Cc3ccccc3C2=O)cc1OC (stereo not drawn) | inactive: -2.63% | 
